# Measurements from PubChem BioAssay AID463173 (ICCB-Longwood Screening Facility, Harvard Medical School, 2010).
# The campaign covered roughly 52,000 compounds. About 4,300 (8.3%) were called active. Rule as the data show it: active = survival mostly below about 52% (no sharp cut-off); inactive = mostly above about 56%. The list shows a part of the results.
# Test system: DeltatarO mutant
# Assay: growth inhibition of S. aureus wild type versus tarO mutant, primary screen, teichoic acid synthesis inhibitors, RN4220, OD600 (AID 463173)
# Conditions: OD600, 18 h, hits give low values, screened at 18.75 µg/mL (by protocol)
row,Compound,survival
1,Cc1ccc(C)c(NC(=O)/C(C#N)=C/c2ccc(C(C)C)cc2)c1,inactive: 66%
2,COc1ccc(C)cc1NC(=O)c1oc2ccc(S(=O)(=O)N3CCC4(CC3)OCCO4)cc2c1C,inactive: 68%
3,CCOC(=O)c1ccc(N2CCN(c3cc(C)ccc3C)CC2)c(NC(=O)Nc2ccc(Cl)cc2)c1,inactive: 84%
4,CC(C)N(C(=O)Cn1cc(SCC(=O)Nc2ccccc2C(F)(F)F)c2ccccc21)C(C)C,inactive: 100%
5,CCOc1ccc(C2C(C(=O)Nc3ccccc3C)=C(C)Nc3nnnn32)cc1 (configuration not stated),inactive: 53%
6,CC(=O)Nc1nnc2n1CCS2,inactive: 68%
7,O=C(CN1C(=O)C2C3C=CC(C3)C2C1=O)NCc1ccco1 (configuration not stated),inactive: 70%
8,Cc1ccc(CN2CCC(CNC(=O)Nc3ccc(C)c(C)c3)C2)cc1 (configuration not stated),inactive: 71%
9,COc1ccc(C)cc1NC(=O)c1nnn(-c2c(C)cccc2C)c1C,inactive: 90%
10,CCOc1cccc(CC(=O)N2CCc3c([nH]c4ccccc34)C2c2ccc(SC)cc2)c1OCC (configuration not stated),inactive: 107%
11,COc1ccc(N2C(=O)CSC23C(=O)N(Cc2ccc(C)cc2)c2ccccc23)cc1Cl (configuration not stated),inactive: 124%
12,CCOc1ccc(NC(=O)Cn2nc(Cc3ccncc3)c3ccccc3c2=O)cc1,inactive: 91%
13,CCCN(CCC)C(=O)c1nn(C)c2c1CSc1ccc(C)cc1-2,inactive: 92%
14,CC(C)Cn1c(=O)c2ccccc2n2c(CCC(=O)Nc3ccc(F)cc3)nnc12,inactive: 83%
15,COc1ccccc1/C=C/c1nc(C#N)c(NCC(C)C)o1,active: 47%
16,COC(=O)c1[nH]c2ccc(F)cc2c1N,inactive: 98%
17,COc1cc(NC(=O)CN2Cc3ccccc3C2=O)cc(OC)c1OC,inactive: 94%
18,Cc1ccc(-c2nc(CCNC(=O)C(=O)Nc3c(C)cccc3C)cs2)cc1,active: 8%
19,CC1=[N+](CCO)c2ccccc2C1(C)C,inactive: 90%

row,Compound,survival
1,CCOCCn1cnc2sc(C(=O)Nc3ccccc3C(=O)OC)c(C)c2c1=O,inactive: 119%
2,CCN(CC)CCOC(=O)c1ccc(NC(=O)c2cc3c(s2)-c2ccccc2OC3)cc1,active: -7%
3,Cc1nc(-c2ccc(S(=O)(=O)Nc3ccc(Cl)c(C(F)(F)F)c3)cc2)co1,inactive: 95%
4,COc1ccc(CNC(=O)c2sc3nc4n(c(=O)c3c2C)CCCCC4)cc1,inactive: 50%
5,Clc1cccc(C2=NC(c3cccs3)=Nc3ccc(Br)cc3N2)c1,inactive: 82%
6,CCN(CC)CCOC(=O)c1ccc(Nc2c3c(nc4ccccc24)CCC3)cc1,inactive: 94%
7,COc1ccc(CNC(=O)C(CC(C)C)N2Cc3ccccc3C2=O)cc1 (configuration not stated),inactive: 126%
8,CCOc1ccccc1CNC(=O)c1cnc2sc(N(CC)CC)nn2c1=O,inactive: 99%
9,CC(C)CN(CCNC(=O)c1cc(-c2cccs2)nc2ccccc12)CC(C)C,inactive: 52%
10,CCOC(=O)c1cc(-c2ccccc2)n(CCCC(=O)Nc2ccccc2C)c1C,inactive: 90%
11,COc1ccc(-n2ccnc(NCc3ccccc3Cl)c2=O)cc1OC,inactive: 81%
12,COc1ccc(C(=O)c2oc3ccccc3c2NC(=O)c2cccc(OC)c2)cc1,inactive: 58%
13,CCc1cccc(NC(=O)Cn2c(=O)n3nc(-c4cccc(F)c4)nc3c3ccccc32)c1,active: 52%
14,CCOc1cc2[nH]c(=O)n(CCCCC(=O)N3CCN(c4ccccc4OC)CC3)c(=O)c2cc1OCC,inactive: 74%
15,C=CCn1c(SCc2cccnc2)nnc1-c1ccncc1,inactive: 88%
16,Cc1ccccc1C(=O)Nc1sc2c(c1C(=O)N1CCC(C)CC1)CCC(C)C2 (configuration not stated),active: -3%
17,CCOC(=O)C1CCCN(c2c(C(=O)c3ccccc3)cnc3ccc(F)cc23)C1 (configuration not stated),active: 35%
18,Cc1ccccc1CS(=O)(=O)Cc1ccc(C(=O)NCCc2ccc(Cl)cc2)o1,inactive: 76%
19,Cc1cn2c(=O)cc(COC(=O)c3ccc(NC(=O)c4ccccc4C)cc3)nc2s1,inactive: 101%

row,Compound,survival
1,COc1ccc2c(c1)c1c(c(=O)n(-c3ccc(OC)c(OC)c3)c(=O)n1Cc1ccc(F)cc1)n2C,inactive: 99%
2,CC(CNC(=O)c1ccc(Cn2c(=O)c3cccn3c3cccnc32)cc1)c1ccccc1 (configuration not stated),active: 41%
3,COc1ccc(-c2c(C)c3cc(OC(=O)N4CCOCC4)ccc3oc2=O)cc1OC,active: 47%
4,CNC(=O)C(C)SCc1ccccc1 (configuration not stated),inactive: 77%
5,COc1cc(CNC(=O)c2ccc3nc(Cc4ccccc4)oc3c2)cc(OC)c1OC,inactive: 144%
6,COc1cccc(C(=O)CC2(O)C(=O)N(Cc3ccccc3)c3ccccc32)c1 (configuration not stated),inactive: 175%
7,NC(=O)Cn1c(=O)n(CCCCCC(=O)NCc2ccc3c(c2)OCO3)c(=O)c2sccc21,inactive: 113%
8,C=CCn1c(SC(C)C)nc2sc3c(c2c1=O)CCCC3,inactive: 71%
9,Cc1ccc(-c2nn3c(=O)cc(CN4CCN(C(=O)Nc5cccc(C(F)(F)F)c5)CC4)nc3s2)cc1,inactive: 89%
10,Cc1ccc(CCNC(=O)c2cnc3c(-c4ccc(F)cc4)c(C)nn3c2C)cc1,inactive: 126%
11,Clc1ccc(-c2noc3ncnc(NC4CCCCC4)c23)cc1,active: 21%
12,COc1ccc(OC)c(C2CC(=O)c3c([nH]c(C(=O)OCc4ccc(C)cc4)c3C)C2)c1 (configuration not stated),inactive: 73%
13,O=C(Oc1ccc2c(=O)c(Cl)coc2c1)c1cccnc1,inactive: 76%
14,Cc1ccccc1NC(=O)COc1ccc2oc3c(c2c1)CCCC3,inactive: 150%
15,CCOC(=O)N1CCC(NC(=O)c2cnn(-c3ccc(OC)cc3)c2C2CCN(C(=O)OC(C)(C)C)CC2)CC1,inactive: 84%
16,Cc1ccc(Cn2c(=O)c3cccnc3n(Cc3ccc(C)cc3)c2=O)cc1,inactive: 79%
17,COc1ccc(-c2cc3nc(C)c(CCC(=O)NCCc4ccc(Cl)cc4)c(C)n3n2)c(OC)c1,inactive: 78%
18,O=C(CN1C(=O)COc2ccc(S(=O)(=O)N3CCCCCC3)cc21)N1CCN(c2ccc(F)cc2)CC1,inactive: 67%
19,Cc1ccc(Cn2c(=O)n(-c3cccc(C(F)(F)F)c3)c(=O)c3c(C)c(C)sc32)c(C)c1,inactive: 97%
